Reference: PMC4336329 (PLoS ONE, 2015)
About 14,000 (4.5%) of roughly 310,000 compounds showed an effect of 50% or more. Effects have a minus sign here. The list shows a part of the results.

What follows are molecules tested against human ether-à-go-go-related gene (hERG) potassium channel (human, UniProt Q12809) (assay: primary screen, population patch clamp on CHO cells stably expressing hERG).
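Further: peak tail current of the secondary pulse compared with the same well before compound.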

Chain of human ether-à-go-go-related gene (hERG) potassium channel (Q12809 whole entry, looked up): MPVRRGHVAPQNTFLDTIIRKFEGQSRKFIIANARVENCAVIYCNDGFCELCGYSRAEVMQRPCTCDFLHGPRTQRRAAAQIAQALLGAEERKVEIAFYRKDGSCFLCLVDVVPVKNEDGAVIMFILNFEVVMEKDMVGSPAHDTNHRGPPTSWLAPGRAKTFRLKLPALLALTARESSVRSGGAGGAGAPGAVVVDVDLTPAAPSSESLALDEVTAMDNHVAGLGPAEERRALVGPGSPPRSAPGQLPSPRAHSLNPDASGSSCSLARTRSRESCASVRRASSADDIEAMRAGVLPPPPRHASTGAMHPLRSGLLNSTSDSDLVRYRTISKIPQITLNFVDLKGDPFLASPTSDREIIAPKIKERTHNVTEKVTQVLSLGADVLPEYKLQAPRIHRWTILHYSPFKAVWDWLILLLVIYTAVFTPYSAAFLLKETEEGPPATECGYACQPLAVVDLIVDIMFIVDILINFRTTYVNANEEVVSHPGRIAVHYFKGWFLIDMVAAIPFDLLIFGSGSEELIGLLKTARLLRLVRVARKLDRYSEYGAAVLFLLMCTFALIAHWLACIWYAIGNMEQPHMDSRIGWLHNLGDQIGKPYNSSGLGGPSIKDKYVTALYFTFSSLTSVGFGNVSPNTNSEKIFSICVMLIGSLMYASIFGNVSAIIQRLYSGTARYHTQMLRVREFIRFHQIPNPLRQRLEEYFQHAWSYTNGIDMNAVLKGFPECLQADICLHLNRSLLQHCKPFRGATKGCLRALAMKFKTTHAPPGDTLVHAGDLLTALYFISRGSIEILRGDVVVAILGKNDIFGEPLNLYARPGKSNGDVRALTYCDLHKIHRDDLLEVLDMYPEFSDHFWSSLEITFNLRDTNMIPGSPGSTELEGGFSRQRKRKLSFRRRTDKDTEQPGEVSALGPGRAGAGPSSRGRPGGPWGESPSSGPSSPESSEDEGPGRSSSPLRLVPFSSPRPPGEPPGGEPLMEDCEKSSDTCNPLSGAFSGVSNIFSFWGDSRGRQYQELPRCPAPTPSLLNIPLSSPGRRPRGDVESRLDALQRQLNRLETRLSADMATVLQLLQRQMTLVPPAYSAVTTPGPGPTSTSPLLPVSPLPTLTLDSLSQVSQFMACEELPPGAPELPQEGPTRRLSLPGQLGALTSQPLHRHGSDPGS

SMILES	hERG current change (%, negative = inhibition) at 10uM
CCOC(=O)C1CCCN(S(=O)(=O)c2ccc(OC)cc2)C1 (stereo not shown)	4.7%
Cc1cc(NC(=O)C(C)Oc2ccc(Cl)cc2Cl)no1 (stereo not shown)	-21.6%
COc1cc(C(=O)NCCOc2cccc(C)c2)c(Br)c(OC)c1OC	1.24%
CCOc1cc(CNCCO)cc(Br)c1OCc1cccs1.Cl	-26.4%
CCOC(=O)c1c(NC(=O)c2ccccc2C)sc2c1CC(C)(C)OC2	1.74%
CC(C)CCNC(=O)C1CCCCN1S(=O)(=O)c1ccc(F)cc1 (stereo not shown)	2.06%
O=C(CCN1C(=O)/C(=C/c2cccs2)SC1=S)N1CCCCC1	8.58%
CNC(=O)C(=O)Nc1nc(C23CC4CC(CC(C4)C2)C3)cs1	4.55%
COC(=O)C1=C(c2ccc3ccccc3c2)C[C@@H]2CC[C@H]1N2C(=O)NC(C)C	-3.76%
COc1ccc(OC)c(NC(=O)c2cc(-c3ccc(C)cc3O)n[nH]2)c1	-1.28%
O=C(CCS(=O)(=O)c1ccc(Cl)cc1)Nc1nc(-c2ccncc2)cs1	-25.9%
CC(C)CN(C(=O)CN1CCN(c2ccccc2O)CC1)c1c(N)n(CC(C)C)c(=O)[nH]c1=O	18.1%
CCOc1ccccc1NC(=O)CN(c1ccc(Cl)cc1)S(C)(=O)=O	-20.9%
CCOC(=O)Cc1csc(/N=C/c2c(O)n(-c3ccccc3C(F)(F)F)c(=O)c3ccccc23)n1	15.3%
O=C(CCC1CCCC1)Nc1ccc([N+](=O)[O-])cn1	-28.8%
CCC1CCCCN1CCCCOc1cccc(Cl)c1.O=C(O)C(=O)O (stereo not shown)	-72%
CC(C)C(=O)Nc1cccc(C(=O)Nc2cc([N+](=O)[O-])ccc2Cl)c1	-0.874%
O=C(CCNC(=O)N1CC(=O)Nc2ccccc21)Nc1ccc(F)c(Cl)c1	3.66%
CN(C)CCCNc1c2c(nc3ccccc13)CCC2.Cl	-3.18%
Cn1c(NC(=O)c2cc(Cl)ccc2Cl)cc(=O)n(C)c1=O	-16.3%
CS(=O)(=O)c1ccc(Cl)c(NC(=O)COC(=O)c2cccc(C#N)c2)c1	-0.788%
O=C(NCc1ccc(Cl)cc1)c1cc(=O)[nH]c2ccccc12	5.24%

SMILES	hERG current change (%, negative = inhibition) at 10uM
CCOc1ccccc1N1CC(C(=O)Nc2nccs2)CC1=O (stereo not shown)	10.8%
Cc1cc(C)cc(N(CCC#N)C(=O)CN2C(=O)NC3(CCCC3)C2=O)c1	3.89%
Cc1cc(C)c2[nH]c(=O)c(CN(Cc3cccs3)C(=S)NCc3ccco3)cc2c1	-15.7%
CCCCN(CC)CCCNC(=O)c1ccc(CS(=O)(=O)c2ccccc2C)o1	-35.2%
COc1ccc(C(=O)/C=C/Nc2ccccn2)cc1	2.01%
O=C1C(c2ccccc2)NC(=S)N1C1CCCCC1 (stereo not shown)	12.6%
CCOC(=O)C1(Cc2cccc(OC)c2)CCCN(C(=O)c2ccc(OC)o2)C1 (stereo not shown)	-17.1%
CCCCn1c(=O)c2c(c3ccccc31)OCC(=O)N2	-4.7%
Cc1cccc(-c2cc3c(nn2)-c2ccccc2C3=O)c1	-1.13%
CC(=O)c1cccc(-n2nnnc2SCC(=O)Nc2cc(C)on2)c1	3.51%
CC(C)(C)C1CCC(OCC(O)CN2CCN(c3ccccc3)CC2)CC1.Cl (stereo not shown)	1.42%
O=C(O)C/C(=C\c1ccc(N2CCOCC2)c([N+](=O)[O-])c1)c1nc2ccccc2s1	0.193%
O=C(CCSc1ccc(F)cc1)NNC(=O)c1ccc([N+](=O)[O-])cc1	-47.7%
O=C(/C=C/c1cccs1)c1ccc([N+](=O)[O-])cc1	17.2%
CCOCCCNC(=O)C1CCN(S(=O)(=O)N2CCCCC2)CC1	3.94%
CCOC(=O)C1CCCN(C(=O)CCNS(=O)(=O)c2cc(Br)cnc2N)C1 (stereo not shown)	-0.00402%
CC1CCCN(C(=S)Nc2ccc3nc4n(c(=O)c3c2)CCCCC4)C1 (stereo not shown)	-66.1%
O=C(CCCC(=O)c1ccc(F)cc1)c1ccc(F)cc1	-25.8%
CN=C(NC#N)NCCSCc1nc[nH]c1C	6.44%
COc1ccc(C(C(=O)NC2CCCC2)N(C(=O)c2ccco2)c2cccc(C(C)=O)c2)cc1OC (stereo not shown)	7.11%
CC(C)CNC(=O)C(=O)NNC(=O)C1CCCCC1	1.25%
CCOC(=O)c1cc(-c2ccccc2)n(CCC(=O)N2CCN(c3ccccc3OC)CC2)c1C	2.59%

SMILES	hERG current change (%, negative = inhibition) at 10uM
C#CCOCCOCCOCCNc1nc(N2CCN(C(=O)[C@H](CCC(=O)O)n3cc(C(N)CC(C)C)nn3)CC2)nc(N2CCN(C(=O)[C@H](CCC(=O)O)n3cc(C(N)[C@H](C)CC)nn3)CC2)n1.Cl (stereo partly shown)	10.3%
COc1cc(/C=N/NC(=O)C2COc3ccccc3O2)cc(OC)c1OC (stereo not shown)	0.732%
COc1cc(C2C(C(=O)c3cccs3)=C(O)C(=O)N2Cc2ccco2)cc(OC)c1OC (stereo not shown)	6.06%
O=C(Cc1c(F)cccc1Cl)OCN1C(=O)c2ccccc2C1=O	12.4%
O=C(CCc1ccc(S(=O)(=O)NCCc2ccccc2)cc1)NCc1ccco1	-12.3%
O=C(NCCN1CCOCC1)c1cccc(S(=O)(=O)N2CCCCCC2)c1	7.38%
CCc1ccc2c(c1)c1nnc(NN)nc1n2C	-36.4%
CCOc1ccc(C2C(C(=O)c3cccs3)=C(O)C(=O)N2Cc2cccnc2)cc1 (stereo not shown)	11.6%
Cc1ccc(CN2CC(C(=O)Nc3cccc(S(=O)(=O)N4CCCCC4)c3)CC2=O)cc1 (stereo not shown)	6.85%
CCc1cccc(C)c1NC(=O)CSc1nnc(-c2cc3cc(Br)ccc3o2)n1CC	12.4%
CC(C)c1nnc(NC(=O)CSc2ncn[nH]2)s1	3.8%
Cc1ccc(C)c(NC(=O)CCNC(=O)N2C[C@H]3C[C@@H](C2)c2cccc(=O)n2C3)c1	5.35%
COCCN1Cc2cccc(C(=O)Nc3ccc4c(c3)OCCO4)c2C1=O	-5.24%
CC(C)(C)C1CCC(N2CCN(c3ccccc3)CC2)CC1 (stereo not shown)	11.9%
CN1CCN(C(=O)CCNC(=O)Cn2cnc3ccccc3c2=O)CC1	18.4%
O=C(NCc1ccc(Cl)cc1)c1cc(=O)[nH]c2ccc(S(=O)(=O)N3CCOCC3)cc12	23.1%
NC(Cc1ccc(OC(F)F)cc1)C(=O)O (stereo not shown)	-0.662%
CCc1ccccc1NC(=O)Cn1cccc1C1=NC(c2ccccc2)CO1 (stereo not shown)	11.9%
CN(C)c1cccc(C(=O)OC(C(=O)Nc2ccc(Cl)cc2C(F)(F)F)c2ccccc2)c1 (stereo not shown)	-3.78%
Cl.Fc1c(F)c(F)c(N2CCNCC2)c(F)c1F	3.51%
Cn1c(/C=N/NC(=O)c2ccccc2)nc2ccccc21	-4.66%
NC(=O)C1CCN(c2c([N+](=O)[O-])cc(C(F)(F)F)cc2[N+](=O)[O-])CC1	-23%

SMILES	hERG current change (%, negative = inhibition) at 10uM
CC1CCCC(NC(=O)COC(=O)c2ccc(S(=O)(=O)N3CCOCC3)cc2)C1C (stereo not shown)	1.27%
CCOc1ccc(NC(=O)CCNS(=O)(=O)c2cccc3nonc23)cc1	-28.5%
Cc1cccc(NS(=O)(=O)c2cc(C(=O)N3CCOCC3)ccc2Cl)c1	-5.78%
O=C(CC1Nc2ccccc2NC1=O)NC1CCCCC1 (stereo not shown)	11.2%
O=C(Nc1cc2c3c(c1)C1CCCC1CN3CC1CCCC21)c1ccccc1 (stereo not shown)	-12.4%
CCCn1c(CN2CCN(c3cccc(Cl)c3)CC2)nc2c1c(=O)n(C)c(=O)n2C	-63.6%
CC(C)Oc1cccc(C(=O)C2CCCN(C(=O)c3cc(C4CC4)[nH]n3)C2)c1 (stereo not shown)	-19.9%
CCn1cc(SCC(=O)Nc2cc(C)on2)c2ccccc21	7.98%
Cc1ccc(CN2[C@@H](Cc3ccccc3)C(=O)CS2(=O)=O)cc1	-1.62%
O=C(COc1ccc2ccccc2c1Br)Nn1cnnc1	-1.78%
Nc1nonc1C(=O)N/N=C/c1cc2c(cc1[N+](=O)[O-])OCO2	11.7%
Cc1ccc(S(=O)(=O)NCc2ccccc2)cc1C(=O)NCCc1ccc(S(N)(=O)=O)cc1	-0.586%
NS(=O)(=O)c1cccc(NS(=O)(=O)c2cccc(C(F)(F)F)c2)c1	6.96%
Cc1ccc(NC(=O)NNC(=O)COc2ccc(Cl)cc2)cc1	13.3%
O=C(NCc1ccccn1)c1ccc(CNS(=O)(=O)c2cccc(Cl)c2)cc1	-0.298%
Cc1cc(C)c(OCC(=O)OCC(=O)NC2CCC(C)CC2)c(C)c1 (stereo not shown)	14.7%
Cc1cccc(C)c1NC(=O)CN(C)C(=O)c1cc([N+](=O)[O-])ccc1N1CCOCC1	24.1%
O=C(Nc1cccc(C(=O)Nc2ccc(F)cc2F)c1)c1ccccc1	2.91%
CCCC(C(=O)NCC1CCCO1)N(Cc1ccccc1)C(=O)CNS(=O)(=O)c1ccccc1 (stereo not shown)	-18.6%
